In experiment [1] the target is MYC3 (Arabidopsis thaliana) (UniProt Q9FIP9). Briefly: split-ubiquitin assay; chemically inducible dimerization split-ubiquitin system in yeast NMY51 TOR1-1 Δfpr1; bHLH as bait (pFKBP12), MYB as prey (pFRB); drop tests of three colonies on SD-AHLW, 2 days at 30°C; SD-AHLW+Rapa as positive control.
In experiment [2] the target is MYC4 (Arabidopsis thaliana) (UniProt O49687). Described as above.
Experiment [3] concerns the target T1, L190A-MIM peptide (F180-G201 of MYB29, L190A) (Arabidopsis thaliana) (UniProt Q9FLR1).
T1 sequence (peptide, biotin on the N-terminus): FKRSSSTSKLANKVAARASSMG
Nature of the experiment: BLI; biotinylated peptide (1 μM) immobilised on streptavidin biosensors; MYC4Nt 130 to 0.1 μM; PBS pH 7.4, 1 mM DTT, 0.05% bovine serum albumin; BLItz; equilibrium responses fitted to a Hill equation; both purified. For orientation: In BLI a coated tip is dipped into the sample, and binding shifts an interference pattern.

Chains of the proteins cited; added tags and fusions are not shown.
UniProt Q9FIP9: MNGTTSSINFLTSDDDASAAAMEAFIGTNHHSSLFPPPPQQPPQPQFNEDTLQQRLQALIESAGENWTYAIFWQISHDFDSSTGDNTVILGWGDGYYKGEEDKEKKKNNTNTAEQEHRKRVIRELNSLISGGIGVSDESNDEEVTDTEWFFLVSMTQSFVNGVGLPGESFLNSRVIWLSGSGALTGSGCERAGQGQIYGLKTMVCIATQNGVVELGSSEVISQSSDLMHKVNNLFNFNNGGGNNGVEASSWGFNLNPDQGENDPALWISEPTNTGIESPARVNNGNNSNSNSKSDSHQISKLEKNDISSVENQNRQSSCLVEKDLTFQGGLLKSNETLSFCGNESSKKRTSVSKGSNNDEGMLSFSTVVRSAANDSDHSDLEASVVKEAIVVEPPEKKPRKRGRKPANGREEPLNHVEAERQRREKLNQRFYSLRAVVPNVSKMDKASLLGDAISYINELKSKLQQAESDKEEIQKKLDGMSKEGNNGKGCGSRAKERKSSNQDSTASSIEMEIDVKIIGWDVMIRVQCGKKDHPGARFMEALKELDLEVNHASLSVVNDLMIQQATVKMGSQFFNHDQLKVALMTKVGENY
UniProt O49608: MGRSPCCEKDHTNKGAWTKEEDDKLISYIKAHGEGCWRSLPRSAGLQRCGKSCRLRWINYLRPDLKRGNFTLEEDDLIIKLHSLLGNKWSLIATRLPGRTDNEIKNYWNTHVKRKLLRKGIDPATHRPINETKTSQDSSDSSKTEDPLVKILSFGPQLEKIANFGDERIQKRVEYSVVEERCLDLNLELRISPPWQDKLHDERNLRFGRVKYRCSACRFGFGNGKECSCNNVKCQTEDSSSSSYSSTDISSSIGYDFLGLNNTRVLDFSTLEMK

No constants are given. Whether binding was seen depends on the method and setting. For part of these data: In cells and extracts the contact can be indirect.

For the molecule MYB32 (from UniProt O49608 1-274), the binding entry in experiment [1] and in experiment [2] was “no binding” each time.

B1: MYC4 N-terminal domain (L55-N253) (domain or fragment, Arabidopsis thaliana, UniProt O49687 55-253, looked up)
chain: LPQVNEDNLQQRLQALIEGANENWTYAVFWQSSHGFAGEDNNNNNTVLLGWGDGYYKGEEEKSRKKKSNPASAAEQEHRKRVIRELNSLISGGVGGGDEAGDEEVTDTEWFFLVSMTQSFVKGTGLPGQAFSNSDTIWLSGSNALAGSSCERARQGQIYGLQTMVCVATENGVVELGSSEIIHQSSDLVDKVDTFFNFN
notes: MYC4, Arabidopsis thaliana, N-terminal domain with the JID, residues L55-N253 (AA55-253); recombinant protein of 22.7 kDa; expressed from pET52u; source: E. coli BL21(DE3), purified (HisTrap HP IMAC, dialysed to PBS pH 7.4 with 1 mM DTT); not shown: 6xHis, C-terminal, kept
B1: the binding result in experiment [3] is reported as “no binding (tested: 130 μM)”.

Values taken from paper PMC6765112, “Specificity of MYB interactions relies on motifs in ordered and disordered contexts” (Nucleic Acids Research, 2019).
